Measured values published in US8343475B2, “Small cationic antimicrobial peptides” (priority 2006, dated 2013).
For some of these results: At least one peptide structure holds a part that was inferred or is arguable (an end, a ring closure or a residue). Some of these results come from one statement about several compounds together. Some compounds share one range, which may span the group rather than tell each member. Residues, ends and D or L forms follow the SMILES beside them.

Assays:
[1] = tested on: highly antibiotic resistant pathogens (MRSA, ESBL E. cloacae, multidrug resistant Pseudomonas strains); test: MIC against panel of highly antibiotic resistant pathogens; type: cell-based
[2] = tested on: MCP-3 release by human PBMC; test: Chemokine induction in PBMC (capture ELISA); type: cell-based; settings: background (6) subtracted
Protocol: FIG. 16. Induction of MCP3 release by 7.5×10^5 human PBMC in response to treatment with 20 or 100 μg/ml of different peptides for 24 hours.
(§1) Venous blood (20 ml) from healthy volunteers was collected in Vacutainer® collection tubes containing sodium heparin as an anticoagulant (Becton Dickinson, Mississauga, ON) in accordance with UBC ethical approval and guidelines. Blood was diluted 1:1 with complete RPMI 1640 medium and separated by centrifugation over a Ficoll-Paque® Plus (Amersham Biosciences, Piscataway, N.J., USA) density gradient. White blood cells were isolated from the buffy coat, washed twice in RPMI 1640 complete medium, and the number of peripheral blood mononuclear cells (PBMC) was determined by trypan blue exclusion. PBMC (5×10^5) were seeded into 12-well tissue culture dishes (Falcon; Becton Dickinson) at 0.75 to 1×10^6 cells/ml at 37° C. in 5% CO2. The above conditions were chosen to mimic conditions for circulating blood monocytes entering tissues at the site of infection via extravasation.
(§2) Following incubation of the cells under various treatment regimens, the tissue culture supernatants were centrifuged at 1000×g for 5 min, then at 10,000×g for 2 min to obtain cell-free samples. Supernatants were aliquoted and then stored at −20° C. prior to assay for various chemokines by capture ELISA (eBioscience and BioSource International Inc., CA, USA respectively)

human PBMC = test: Adjuvant properties: cytokine/chemokine induction by peptides alone and with CpG oligonucleotides and polyphosphazene P6; type: cell-based; settings: human PBMC; peptide alone 20 ug/mL; background subtracted
Protocol: as §1, §2
(§3) It is well accepted that vaccine immunization is best achieved by co-administration of an adjuvant. The precise mechanism by which these adjuvants work has eluded immunologists but appears to work in part by upregulating elements of innate immunity that smooth the transition to adaptive (antigen-specific) immunity (Bendelac A and R. Medzhitov. 2002. Adjuvants of immunity: Harnessing innate immunity to promote adaptive immunity J. Exp. Med. 195:F19-F23). Within this concept there are several possible avenues by which adjuvants might work including the attraction of immune cells into the site at which a particular antigen is injected, through e.g., upregulation of chemokines, the appropriate activation of cells when they reach that site, which can be caused by local cell or tissue damage releasing endogenous adjuvants or through specific cell activation by the adjuvants, and the compartmentalization of immune responses to the site of immunization (the so-called “depot” effect). […] Therefore we studies the ability of our small host defence peptides to upregulate adjuvant responses in both human PBMC and cord blood mononuclear cells (CBMC) (representing the responses of blood cells from neonates), both alone (Table 10 and 11) and in combination with other proposed adjuvant agents that might work through other mechanisms such as CpG oligodeoxy ribonucleotides (TLR9 agionists that activate cells through interaction with TLR9 and fit into 3 different classes A=molecule 2336, B=10103 and C=2395), and polyphosphazene P6 (which induces a depot effect).

[3] = tested on: MCP-1 release by human PBMC; test: Chemokine induction in PBMC (capture ELISA); type: cell-based; settings: background (204) subtracted
Protocol: FIG. 15. Induction of MCP-1 release by 7.5×10^5 human PBMC in response to treatment with 20 or 100 μg/ml of different peptides for 24 hours.
as §1, §2

[4] = tested on: CXCL1 (Gro-α) release by human PBMC; test: Chemokine induction in PBMC (capture ELISA); type: cell-based; settings: background (196) subtracted
Protocol: FIG. 17. Induction of CXCL1 (Gro-α) release by 7.5×10^5 human PBMC in response to treatment with 20 or 100 μg/ml of different peptides for 24 hours.
as §1, §2

[5] = tested on: cord blood mononuclear cells (CBMC); test: Adjuvant properties: cytokine/chemokine induction by peptides alone and with CpG oligonucleotides and polyphosphazene P6; type: cell-based, human; settings: peptide alone 20 ug/mL, background subtracted
Excerpt: as §3

For `CC[C@H](C)[C@H](NC(=O)[C@H](Cc1c[nH]c2ccccc12)NC(=O)[C@H](CCCCN)NC(=O)[C@@H](N)CCCNC(=N)N)C(=O)N[C@@H](Cc1c[nH]c2ccccc12)C(=O)N[C@@H](CCCNC(=N)N)C(=O)N[C@@H](Cc1c[nH]c2ccccc12)C(=O)N[C@@H](Cc1ccccc1)C(=O)N[C@@H](CC(C)C)C(N)=O` [HHC75, RKWIWRWFL] (H-RKWIWRWFL-NH2; N-terminus assumed), the “activity against nearly all tested superbugs” value (from here on “activity”) [1] was 1 to 10 µM.
For `CC[C@H](C)[C@H](NC(=O)[C@H](Cc1c[nH]c2ccccc12)NC(=O)[C@H](CCCCN)NC(=O)[C@H](Cc1c[nH]c2ccccc12)NC(=O)[C@H](Cc1c[nH]c2ccccc12)NC(=O)[C@H](CCCNC(=N)N)NC(=O)[C@@H](N)CCCCN)C(=O)N[C@@H](CCCNC(=N)N)C(=O)N[C@@H](Cc1c[nH]c2ccccc12)C(N)=O` [HHC10, KRWWKWIRW] (H-KRWWKWIRW-NH2; N-terminus assumed), the “activity” value [1] was 1 to 10 µM.
With `CC[C@H](C)[C@H](NC(=O)[C@H](CCCNC(=N)N)NC(=O)[C@H](Cc1ccccc1)NC(=O)[C@H](CCCNC(=N)N)NC(=O)[C@@H](N)C(C)C)C(=O)N[C@@H](CCCNC(=N)N)C(=O)N[C@H](C(=O)N[C@@H](C)C(=O)N[C@H](C(=O)N[C@H](C(=O)N[C@@H](CCCNC(=N)N)C(=O)N[C@@H](C)C(N)=O)[C@@H](C)CC)C(C)C)C(C)C` [HH3, VRFRIRVAVIRA] (H-VRFRIRVAVIRA-NH2) the “Chemokine induction MCP-3” value ([2]; 20 μg/ml peptide) was 26 pg/mL, the “Chemokine induction MCP-3” value ([2]; 100 μg/ml peptide) was 38 pg/mL and the “Cytokines induced: Gro-α” value (human PBMC) was 8 pg/mL. For the same compound, the “Cytokines induced: IL-6” value (human PBMC) was 7 pg/mL, the “Cytokines induced: IL-8” value (human PBMC) was 490 pg/mL and the “Cytokines induced: MCP-1” value (human PBMC) was 8 pg/mL. For the same compound, the “Cytokines induced: MCP-3” value (human PBMC) was 0 pg/mL, the “Cytokines induced: TNF-α” value (human PBMC) was 0 pg/mL and the “Chemokine induction MCP-1” value ([3]; 20 μg/ml peptide) was 0 pg/mL. For the same compound, the “Chemokine induction MCP-1” value ([3]; 100 μg/ml peptide) was 2 pg/mL, the “Chemokine induction Gro-α” value ([4]; 20 μg/ml peptide) was 19 pg/mL and the “Chemokine induction Gro-α” value ([4]; 100 μg/ml peptide) was 179 pg/mL. The “Cytokines induced: Gro-α” value [5] was 37 pg/mL, the “Cytokines induced: IL-6” value [5] was 14 pg/mL and the “Cytokines induced: IL-8” value [5] was 471 pg/mL. For the same compound, the “Cytokines induced: MCP-1” value [5] was 249 pg/mL, the “Cytokines induced: MCP-3” value [5] was -43 pg/mL and the “Cytokines induced: TNF-α” value [5] was -8 pg/mL.
For `CC(C)C[C@H](NC(=O)[C@H](Cc1c[nH]c2ccccc12)NC(=O)[C@H](Cc1c[nH]c2ccccc12)NC(=O)[C@H](CCCCN)NC(=O)[C@H](Cc1c[nH]c2ccccc12)NC(=O)[C@H](CCCNC(=N)N)NC(=O)[C@H](CCCNC(=N)N)NC(=O)[C@H](Cc1c[nH]c2ccccc12)NC(=O)[C@@H](N)CCCNC(=N)N)C(N)=O` [HHC9, RWRRWKWWL] (H-RWRRWKWWL-NH2; N-terminus assumed), the “activity” value [1] was 1 to 10 µM.
For `N=C(N)NCCC[C@H](NC(=O)[C@H](CCCNC(=N)N)NC(=O)[C@H](Cc1c[nH]c2ccccc12)NC(=O)[C@H](Cc1c[nH]c2ccccc12)NC(=O)[C@H](CCCCN)NC(=O)[C@H](Cc1c[nH]c2ccccc12)NC(=O)[C@H](Cc1c[nH]c2ccccc12)NC(=O)[C@H](CCCNC(=N)N)NC(=O)[C@@H](N)CCCCN)C(N)=O` [HHC36, KRWWKWWRR] (H-KRWWKWWRR-NH2; N-terminus assumed), the “activity” value [1] was 1 to 10 µM.
